In patent US20200079801A1, “TRISUBSTITUTEDSILYLBENZYLBENZIMIDAZOLES AND ANALOGUES” (Bayer Aktiengesellschaft, priority 2017, published 2020):

Procedure: In table 1, the logP values were determined in accordance with EEC Directive 79/831 Annex V.A8 by HPLC (High Performance Liquid Chromatography) on a reversed-phase column (C 18), using the method described below:
temperature: 40° C.; mobile phases: 0.1% aqueous formic acid and acetonitrile; linear gradient from 10% acetonitrile to 95% acetonitrile;
Calibration was carried out using unbranched alkan-2-ones (comprising 3 to 16 carbon atoms) with known logP values (determination of the logP values by the retention times using linear interpolation between two successive alkanones). lambda-max-values were determined using UV-spectra from 200 nm to 400 nm and the peak values of the chromatographic signals.

logP	Compound
4.10	C[Si](C)(c1cccs1)c1ccccc1Cn1cnc2c(F)cccc21 [I.06]
3.87	C[Si](C)(c1cccs1)c1ccccc1Cn1cnc2cccc(F)c21 [I.07]
2.71	Cc1cc2ncn(Cc3ccccc3[Si](C)(C)c3ccccc3)c2cc1C [I.09]
2.86	C[Si](C)(c1ccc(Cl)cc1)c1ccccc1Cn1cnc2ccccc21 [I.12]
2.08	C[Si](C)(c1ccc(Cl)nc1)c1ccccc1Cn1cnc2ccccc21 [I.13]
3.84	Cc1nc2c(F)cccc2n1Cc1ccccc1[Si](C)(C)c1cccs1 [I.14]
3.46	Cc1nc2cccc(F)c2n1Cc1ccccc1[Si](C)(C)c1cccs1 [I.15]
4.20	C[Si](C)(c1cccs1)c1ccccc1Cn1cnc2cc(F)c(F)cc21 [I.16]
4.37	C[Si](C)(c1cccs1)c1ccccc1Cn1cnc2c(F)c(F)ccc21 [I.17]
4.37	C[Si](C)(c1cccs1)c1ccccc1Cn1cnc2ccc(F)c(F)c21 [I.18]
4.80	C[Si](C)(Cc1ccccc1)c1ccccc1Cn1cnc2c(Cl)cccc21 [I.24]
4.98	C[Si](C)(Cc1ccccc1)c1ccccc1Cn1cnc2cccc(Cl)c21 [I.25]
2.10	Cc1nc2ccccc2n1Cc1ccccc1[Si](C)(C)c1ccc(Cl)nc1 [I.26]
4.35	Cc1nc2ccc(F)c(F)c2n1Cc1ccccc1[Si](C)(C)c1cccs1 [I.30]
2.86	Cc1cc2ncn(Cc3ccccc3[Si](C)(C)c3ccc(Cl)cc3)c2cc1C [I.32]
3.65	C[Si](C)(c1ccc(Cl)nc1)c1ccccc1Cn1cnc2c(Cl)cccc21 [I.35]
3.37	C[Si](C)(c1ccc(Cl)nc1)c1ccccc1Cn1cnc2cc(F)c(F)cc21 [I.39]
5.78	C[Si](C)(Cc1ccccc1)c1ccccc1Cn1c(C(F)(F)F)nc2ccccc21 [I.42]
3.76	Cc1nc2ccc(F)c(F)c2n1Cc1ccccc1[Si](C)(C)c1ccc(Cl)nc1 [I.43]
3.61	C[Si](C)(c1ccc(Cc2ccccc2)cc1)c1ccccc1Cn1cnc2ccccc21 [I.45]
3.54	C[Si](C)(c1ccc(Oc2ccccc2)cc1)c1ccccc1Cn1cnc2ccccc21 [I.47]
3.33	Cc1nc2ccccc2n1Cc1ccccc1[Si](C)(C)c1ccc(Cc2ccccc2)cc1 [I.49]
3.18	Cc1nc2ccccc2n1Cc1ccccc1[Si](C)(C)c1ccc(Oc2ccccc2)cc1 [I.50]
5.08	C[Si](C)(c1ccccc1)c1ccccc1Cn1cnc2c(Br)cccc2c1=O [I.51]
3.51	Cc1cc2ncn(Cc3ccccc3[Si](C)(C)c3ccc(Cc4ccccc4)cc3)c2cc1C [I.52]
3.39	Cc1cc2ncn(Cc3ccccc3[Si](C)(C)c3ccc(Oc4ccccc4)cc3)c2cc1C [I.54]
3.33	Cc1cc2nc(C)n(Cc3ccccc3[Si](C)(C)c3ccc(Oc4ccccc4)cc3)c2cc1C [I.55]
3.98	C[Si](C)(Cc1ccccc1)c1ccccc1Cn1cnc2ncccc21 [I.56]
3.31	C[Si](C)(Cc1ccccc1)c1ccccc1Cn1cnc2cccnc21 [I.57]

Compound	logP
C[Si](C)(c1cccs1)c1ccccc1Cn1cnc2ccccc21 [I.02]	2.52
Cc1nc2ccccc2n1Cc1ccccc1[Si](C)(C)c1ccccc1 [I.03]	2.50
C[Si](C)(Cc1ccccc1)c1ccccc1Cn1cnc2ccccc21 [I.04]	3.04
Cc1nc2ccccc2n1Cc1ccccc1[Si](C)(C)c1cccs1 [I.05]	2.36
C[Si](C)(c1ccccc1)c1ccccc1Cn1cnc2ccccc2c1=O [I.08]	4.32
Cc1nc2ccccc2n1Cc1ccccc1[Si](C)(C)Cc1ccccc1 [I.10]	2.74
Cc1cc2ncn(Cc3ccccc3[Si](C)(C)c3cccs3)c2cc1C [I.11]	2.60
Cc1nc2ccccc2c(=O)n1Cc1ccccc1[Si](C)(C)c1ccccc1 [I.19]	4.54
Cc1cc2ncn(Cc3ccccc3[Si](C)(C)Cc3ccccc3)c2cc1C [I.20]	3.08
Cc1cc2nc(C)n(Cc3ccccc3[Si](C)(C)c3ccccc3)c2cc1C [I.21]	2.67
Cc1cc2nc(C)n(Cc3ccccc3[Si](C)(C)c3cccs3)c2cc1C [I.22]	2.58
Cc1nc2ccccc2n1Cc1ccccc1[Si](C)(C)c1ccc(Cl)cc1 [I.23]	2.71
C[Si](C)(c1ccc(Cl)nc1)c1ccccc1Cn1cnc2c(F)cccc21 [I.27]	3.48
C[Si](C)(c1ccc(Cl)nc1)c1ccccc1Cn1cnc2cccc(F)c21 [I.28]	3.29
Cc1cc2nc(C)n(Cc3ccccc3[Si](C)(C)Cc3ccccc3)c2cc1C [I.31]	2.84
C[Si](C)(c1ccccc1)c1ccccc1Cn1cnc2cccc(C(F)(F)F)c21 [I.33]	5.11
C[Si](C)(c1ccccc1)c1ccccc1Cn1cnc2c(C(F)(F)F)cccc21 [I.34]	4.93
C[Si](C)(c1ccc(Cl)nc1)c1ccccc1Cn1cnc2cccc(Cl)c21 [I.36]	3.72
C[Si](C)(c1ccc(Cl)nc1)c1ccccc1Cn1cnc2c(F)c(F)ccc21 [I.37]	3.74
C[Si](C)(c1ccc(Cl)nc1)c1ccccc1Cn1cnc2ccc(F)c(F)c21 [I.38]	3.81
Cc1cc2nc(C)n(Cc3ccccc3[Si](C)(C)c3ccc(Cl)cc3)c2cc1C [I.41]	2.86
Cc1nc2c(F)c(F)ccc2n1Cc1ccccc1[Si](C)(C)c1ccc(Cl)nc1 [I.44]	3.92
